# Results taken from PubChem BioAssay AID488969 (Vanderbilt High Throughput Screening Facility, 2010).
# Whole data set: some 110,000 compounds, median “z-score” near -0.1, cut for the highest 2% near 2. The list shows a part of the results. Activity calls are given as the source filed them.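 Rule for the calls: active = z-score in the third read window above 3 or below -3; inactive = the rest.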
# Target: Metabotropic glutamate receptor 8 (Rattus norvegicus) (UniProt P70579)
# Assay: mGluR8 Gi/Go-coupled signaling modulation – cell-based, rat, thallium flux, HTS, primary screen (AID 488969)
# Details: HEK293 rat mGluR8, GIRK (G protein-gated inwardly rectifying potassium channel) thallium flux, FluoZin2; at 10 µM; stronger effect = higher value; submaximal glutamate (EC20) added with thallium
# UniProt P70579, sequence (P70579 whole entry, looked up): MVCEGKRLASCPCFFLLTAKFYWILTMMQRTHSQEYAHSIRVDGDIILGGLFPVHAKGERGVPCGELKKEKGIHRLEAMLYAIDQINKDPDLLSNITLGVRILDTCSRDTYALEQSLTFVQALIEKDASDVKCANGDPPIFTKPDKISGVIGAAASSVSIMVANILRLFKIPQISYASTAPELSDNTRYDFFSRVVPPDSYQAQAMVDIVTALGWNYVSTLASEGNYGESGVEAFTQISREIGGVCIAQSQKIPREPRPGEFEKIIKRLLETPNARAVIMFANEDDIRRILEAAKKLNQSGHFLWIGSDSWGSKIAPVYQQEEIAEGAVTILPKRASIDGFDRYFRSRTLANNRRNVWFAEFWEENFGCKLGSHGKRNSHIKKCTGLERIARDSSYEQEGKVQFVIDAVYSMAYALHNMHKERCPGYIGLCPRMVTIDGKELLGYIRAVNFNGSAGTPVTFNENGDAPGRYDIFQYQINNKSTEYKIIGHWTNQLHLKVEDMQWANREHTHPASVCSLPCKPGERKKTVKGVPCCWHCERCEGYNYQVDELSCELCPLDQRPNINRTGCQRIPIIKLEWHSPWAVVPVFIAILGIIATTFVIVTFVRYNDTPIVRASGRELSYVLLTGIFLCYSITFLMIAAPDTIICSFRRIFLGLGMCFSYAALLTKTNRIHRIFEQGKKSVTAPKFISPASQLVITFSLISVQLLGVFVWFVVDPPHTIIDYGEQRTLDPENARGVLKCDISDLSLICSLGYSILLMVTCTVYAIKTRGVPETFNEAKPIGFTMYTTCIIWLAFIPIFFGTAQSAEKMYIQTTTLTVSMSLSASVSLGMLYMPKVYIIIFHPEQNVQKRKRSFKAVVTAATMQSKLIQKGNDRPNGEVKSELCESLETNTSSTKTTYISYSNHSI
row,Compound,z-score
1,Cc1ccc(N(C(C)C(=O)Nc2ccc(S(=O)(=O)N3CCOCC3)cc2)S(C)(=O)=O)cc1 (stereo not given),0.137
2,Cc1ccc(CNC(=O)COC(=O)c2c(C)noc2C)cc1,0.134
3,CC(=O)Oc1cccc(N2C(=O)CC(Nc3ccc(N4CCOCC4)cc3)C2=O)c1 (stereo not given),-0.44
4,CCOC(=O)c1sc(NC(=O)CSc2nc3c(cc2C#N)CCC3)c(C#N)c1C,-0.132
5,Cc1onc(-c2ccccc2Cl)c1C(=O)Nc1nnc(-c2ccc(Cl)cc2Cl)s1,-0.0464
6,Cc1c(F)cccc1NC(=O)CCC(=O)O,0.0375
7,Cc1ccccc1Cn1c(C(=O)OC(C)C)cc2c1ccn2C,0.526
8,CCN(CC)S(=O)(=O)c1cccc(-c2nnc(SC(C)C(N)=O)n2CCc2ccccc2)c1 (stereo not given),-0.152
9,CCN(CC)c1ncnc2sc3c(c12)CCC3,-1.8
10,CCOCc1cnc(C)nc1NCC(=O)c1c(C)[nH]c2ccc(OC)cc12,0.113
11,CCCn1c2ccccc2c2nnc(SC(CC)C(=O)Nc3cc(C)on3)nc21 (stereo not given),1.42
12,Cc1ccc2cc(-c3noc(C(C)(C)C)n3)c(=O)[nH]c2c1,-1.58
13,C=CCNC(=O)c1cc2nc(C3CC3)cc(C(F)F)n2n1,-0.112
14,O=C(CN1CCOCC1)Nc1nc2ccc(F)cc2s1,-0.00921
15,Cc1ccc(S(=O)(=O)CC(=O)c2ccccc2)cc1,-0.00758
16,N/C(Cc1ccc(Cl)cc1Cl)=N\OC(=O)Cc1cccs1,-0.0476
17,CCS(=O)(=O)N1CCC(C(=O)NCCCN2CCCCCC2)CC1,-0.116
18,Cc1csc(N(C(=O)c2cccc(S(=O)(=O)N3CCCC3)c2)c2ccccc2)n1,-0.475
19,CCOC(=O)C1C(=O)C=C(N2CCOCC2)CC1c1cccc(OC)c1 (stereo not given),0.312
20,CN(C)C(=O)Cn1c(SCC(=O)NC2CCCCC2)nc2ccccc21,0.226
21,O=C(Cc1ccccc1)N1CCN=C1SCc1ccc([N+](=O)[O-])cc1,-0.0675
22,O=S(=O)(NCC1COc2ccccc2O1)c1ccc2ccccc2c1 (stereo not given),-0.0854
23,O=C(COC(=O)CCCc1nc2ccccc2s1)Nc1ncc(Cl)cc1Cl,-1.07
24,CCOc1ccc(S(=O)(=O)c2c(C(=O)c3ccccc3)cnc3cc4c(cc23)OCCO4)cc1,-0.174
25,Cc1ccccc1C(=O)NC(=S)Nc1sc2c(c1C#N)CCCC2,active: 5.02
26,N#Cc1nc(COc2ccccc2F)oc1NCCCn1ccnc1,-0.273
27,COc1cc(C2C(C#N)=C(C)NC3=C2C(=O)CC(C)(C)C3)ccc1O (stereo not given),-0.333
28,O=C(Nc1ccc(Cl)cc1)OCc1cn(-c2ccc(Cl)cc2)nn1,-0.379
29,Cc1ccc(NC(=O)Cn2cccc2)cc1Cl,2.51
30,Cc1ccc(S(=O)(=O)Nc2nc(C)c(C(=O)Nc3ccccc3)s2)cc1,-0.207
